This is an account of results in ChEMBL document CHEMBL1157539, “Thousands of chemical starting points for antimalarial lead identification” (Nature, 2010).

The structures appear in SMILES notation. The full ranking holds about 13,000 compounds; the median of “IFI” is about 4, and the highest 2% start at about 17. The list shows a part of the results.

The test is described as follows: GSK_TCMDC: Inhibition Frequency Index (IFI). The number of non-kinase HTS assays where a compound showed > 50 % inhibition, expressed as a percentage of the number of such assays in which the compound was tested (-0 is zero). In kind it is functional.
`CCC(N)(C#Cc1ccc(-c2c(C)[nH]c(C)c(Br)c2=O)cc1)CC` had an IFI of 0.91%.
Consider `CCCc1cc(NCc2ccncc2)nc(Nc2ccc(F)cc2)n1`, for which the IFI worked out at 0%.
Turning to `COc1ccc(C(=O)N2CCC3(CC2)C(=O)N(CC(=O)NC2CCCCC2)CN3c2ccccc2)c(OC)c1`, the IFI came to 0%.
The figure for `COc1cc(C(=O)Nc2ccc(-c3nc4ccccc4[nH]3)cc2)cc(OC)c1OC` is 1.4%.
The figure for `O=C(Nc1ccccc1)OCCOc1ccc(CC2SC(=O)NC2=O)cc1` (configuration not stated) is 2.84%; for `COc1ccc(-c2cccc(NC(=O)c3ccc(Cl)cc3)c2)cc1CN1CCCC1` it is 6.8%; for `COc1ccc(NC(=O)[C@H](CC(C)C)Nc2cc(C)nc(NCC3CCCCC3)n2)cc1` it is 13.9%.
In the case of `N=C(N)NN=Cc1c2ccccc2c(Cl)c2c(Cl)cccc12` it was 11.3%; in that of `COc1ccccc1-c1sccc1C(=O)NC1(c2cc(Cl)cc(Cl)c2)CCCC1`, 3.15%; in that of `COc1ccc(C2CCN(CCN3CCC(NC(=O)c4cccc(-c5ccncc5)c4)CC3)CC2)c(OC)c1`, 0.79%.
`O=c1[nH]nc(-c2ccc(N3CCCC3)c([N+](=O)[O-])c2)c2ccccc12` gave an IFI of 1.42%.
Regarding `O=C(NC1CCC(CCN2CCc3ccc(-c4cnccn4)cc3CC2)CC1)c1cccc(-n2cccn2)c1` (configuration not stated), the IFI was 5.3%.
The molecule `Fc1cccc(Nc2nc(NCc3ccc(Cl)c(Cl)c3)nc(Nc3cccc(F)c3)n2)c1` came in with an IFI of 7.69%.
In the case of `Cc1cnc(N2CCN(CC3CCN(C)CC3)CC2)nc1Oc1ccc(-n2ccnc2)cc1` it was 0.97%.
The molecule `COc1ccc(C=NNc2nc3ccccc3[nH]2)cc1O` returned an IFI of -0%.
In turn, `COc1ccc(NC(=O)CSc2nc(-c3ccccc3Cl)ns2)cc1OC` had an IFI of 4.76%.
The figure for `N#Cc1cccc(Nc2cc(C(F)(F)F)nc(Nc3ccccc3)n2)c1` is 13.6%.
Molecule `CCOCCCNc1nc2cc(OC)c(OC)cc2c2nc(-c3ccccc3)nn12` had an IFI of 0.93%.
`COc1ccc2[nH]c(C)cc(=NN=Cc3ccccc3F)c2c1` returned an IFI of 4.41%.
Molecule `CCNc1cc(C(=O)N[C@@H](Cc2ccccc2)[C@H](O)CN[C@@H]2CCc3ccccc32)cc(N2CCCCS2(=O)=O)c1` displayed an IFI of 0.72%.
On to `CN(C)Cc1cccc(-c2ccc(NC(=O)c3ccc4c(=O)n(C5CCCCC5)cnc4c3)cc2)c1`, for which the IFI came to 7%.
The figure for `Cc1cccc(-c2ccc3c(c2)CC(NCc2cccc(-n4ccnc4)c2)C3)c1` (configuration not stated) is 6.98%; for `Oc1ccc(C=NNC(S)=Nc2cccc3ccccc23)c(O)c1` it is 8.82%.
`N#Cc1cccc(CNC(=O)c2cccc(Nc3ccnc4ccc(F)cc34)c2)c1`: the IFI is 1.52%.
The figure for `CC(Cc1ccc(OCCN2CCN(c3ccccc3)CC2)cc1)NCC(O)c1cccc(Cl)c1F` (configuration not stated) is 12%.
With `Cc1nc(N)nc(N)c1OCc1ccc(Cl)c(Cl)c1`, the IFI turned out to be 0.75%.
`O=C(Nc1ccc2nc3n(c(=O)c2c1)CCCCC3)C(=O)N1CCN(c2ccc(F)cc2)CC1` returned an IFI of -0%.
`N=C(/N=C(/NCCCCCCN/C(=N/C(=N)NCc1ccc(Cl)c(Cl)c1)N1CCCCC1)N1CCCCC1)NCc1ccc(Cl)c(Cl)c1` registered an IFI of 18.8%.
In the case of `O=C(c1cccc(-c2cccc(-c3nc4cc(C(F)(F)F)ccc4[nH]3)c2)c1)N1CCCCC1CN1CCC(O)C1` (configuration not stated) it was 5.36%; in that of `Cc1ccccc1CNc1ccc2nc(N)nc(N)c2c1`, 2.29%.
The figure for `Cc1ccc(C(NC(=O)Cc2ccccc2)c2ccc3cccnc3c2O)cc1` (configuration not stated) is 7.33%; for `COc1ccc(C2c3cc(OC)c(OC)cc3C(=NO)C2C)cc1OC` (configuration not stated) it is 6%; for `CC(C)CCN(Cc1cncn1Cc1cccc(Cl)c1)C(=O)c1cncc(-c2ccccc2)c1` it is 6.49%.
The figure for `O=C(/C=C/c1ccc(Cl)c(Cl)c1)NCCCCCN1CCC(NC(=O)Nc2cc(Cl)ccc2Cl)CC1` is 9.87%.
Turning to `CCCCOc1ccccc1C(=O)NCc1csc(-c2ccccc2)n1`, the IFI came out at 17%.
The molecule `CC(=O)NCCNc1cc(N2CCc3ncnc(Nc4ccc(OCc5c(F)cccc5F)c(Cl)c4)c3C2)ncn1` gave an IFI of 9.56%.
The molecule `CC(=O)Nc1ccc(OCCCCN(Cc2ccccc2C(F)(F)F)c2ccc(C#N)c(C(F)(F)F)c2)c(Cl)c1` came in with an IFI of 0%.
In the case of `Cc1nccn1CCNC(=O)CN1CCC2(CCC1=O)CC(=O)c1ccccc1O2` (configuration not stated) it was -0%.
The figure for `Cc1cc(-c2ccc3c(c2)CCN(CCC2CCC(NC(=O)/C=C/c4ccccc4F)CC2)CC3)on1` (configuration not stated) is 2.29%; for `C=CCC(C)n1ncc2c3c(N)nc(N)nc3ccc21` (configuration not stated) it is 2.22%; for `CN1CCN(c2ccnc3ccc(NC(=O)Nc4ccc(Br)cc4)cc23)CC1` it is 2.94%.
In the case of `c1ccc(CN2CCN(c3cc(-c4cncc(-c5ccccc5)c4)nc(-c4ccccc4)n3)CC2)cc1` it was 0%; in that of `CS(=O)(=O)c1ccc(CCNCc2ccc(-c3ccc(CN(C(=O)c4cccc(C#N)c4)C4CCN(Cc5ccccc5)CC4)cc3)nc2)cc1`, 5.56%.
`Cc1ccccc1CNC(=O)Nc1cccc(-c2csc(NC(=N)N)n2)c1`: the IFI amounted to 3.76%.
In the case of `CCn1c(-c2nonc2N)nc2c(-c3ccc(CO)o3)ncc(OCCCN)c21` it was 15.4%.
The figure for `CNC(=O)NC1=NC(C)(C)N(OCCCOc2cc(Cl)c(Cl)cc2Cl)C(N)=N1` is 0%.
As for `CCc1c(C)c(C#N)c2nc3ccccc3n2c1NCc1ccco1`, the IFI is 1.8%.
In the case of `COc1ccc2nccc([C@@H](O)CN3CCC(NC(=O)CCC(=O)c4cc(C(C)(C)C)ccc4OC)CC3)c2c1` it was 10.3%; in that of `COc1cc(NC(=O)c2nn(CCCN3CCC(N4CCCC4)CC3)cc2-c2ccc(Cl)c(Cl)c2)cc(OC)c1OC`, 10.9%; in that of `Cc1cc(Cl)ccc1NC(=O)Nc1ccc2nccc(N3CCN(C)CC3)c2c1`, 2.14%.
In the case of `CC1(C)CCCN(Cc2c(O)ccc3c(O)c(-c4nc5ccccc5s4)c(=N)oc23)C1`, the IFI came to 0.73%.
`CCOc1cc(C(=O)NC2CC(C)(C)NC(C)(C)C2)ccc1-c1nc2cc(Cl)ccc2[nH]1` yielded an IFI of 2.05%.
The molecule `COC(=O)CCn1c(C2CCN(CC3CCC(NC(=O)/C=C/c4ccc(Cl)c(Cl)c4)CC3)CC2)nc2ccccc21` (configuration not stated) had an IFI of 3.03%.
The figure for `CC(C)CCN1CCCN(Cc2ccc(C(=O)Nc3ccc(F)c(F)c3)cc2)CC1` is 7.14%; for `Cc1cc(=O)c(-c2ccc(Oc3ccc(Cl)cc3Cl)cc2)c(C)[nH]1` it is 2.88%; for `CCCc1cc(=O)oc2cc(OC)c(C(=O)CC(C)C)c(OC)c12` it is 0.81%.
In turn, `COc1ccc(CCNC(=O)c2ccc(-n3cc(NC(=O)c4cccnc4)cn3)cc2)cc1OC` came in with an IFI of 9.76%.
The figure for `FC(F)(F)Oc1cccc(CNc2noc(-c3sccc3Br)n2)c1` is 10.6%; for `Cc1cccc2nc(-c3ccc(-c4cccc(CN5CCCC5CN)c4)s3)[nH]c12` (configuration not stated) it is 7.92%; for `Cc1[nH]c2ccc(-c3ccccc3)cc2c(=O)c1Br` it is 0.88%.
In the case of `CCC[C@@H]([C@@H](CC1CCCCC1)C(=O)NC(C(=O)Nc1nccs1)C(CC)c1ccccc1)N(O)C=O` (some centres not stated) it was 6.02%.
In the case of `Cc1cc(Nc2ccc(C)c(C)c2)n2nc(C)nc2n1` it was 0%; in that of `CCC(C)C(COC(=O)c1cc(OC)c(OC)c(OC)c1)N(C)CCN(C)C(COC(=O)c1cc(OC)c(OC)c(OC)c1)C(C)CC` (configuration not stated), 1.48%.
On to `CN(C)CCCOc1ccc(CN2CC[C@H](NC(=O)c3ccc(Cl)c(Cl)c3)C2)cc1Br`, for which the IFI stood at 10.3%.
The figure for `COc1cc2nc(NCC3CCN(c4nc(N)c5cc(OC)c(OC)cc5n4)CC3)nc(N)c2cc1OC` is 7.96%.
The figure for `Cc1c(NCCCNCc2cc(Cl)cc(Cl)c2Cl)[nH]c2ccccc2c1=O` is 8.53%.
The figure for `Cc1cc(NC(=O)NCCN2CCC(NC(=O)c3cccc(Br)c3)C2)c2ccccc2n1` (configuration not stated) is 0.84%; for `N=C1C=C(N)C(=O)c2ccccc21` it is 20.8%.
`C=CCc1cccc(CN2CCC(c3cc(O)nc(-c4ccccn4)n3)CC2)c1O`: the IFI was found to be 11.8%.
Turning to `O=C(c1ccccc1)N1COCC(CCN2CCC(N3CCCC3)CC2)(c2ccc(Cl)c(Cl)c2)C1` (configuration not stated), the IFI was 0%.
Molecule `O=C(O)CNCC(O)c1ccccc1` (configuration not stated) gave an IFI of -0%.
Take `CC(=O)Nc1ccc(C(=O)N2CCN(c3ccnc4cc(Cl)ccc34)CC2)cc1`: the IFI was -0%.
The figure for `CC1(C)N=C(N)N=C(N)N1c1ccc(Oc2ccc(Cl)cc2)c(Cl)c1` is 3.45%; for `Cc1c(C)n(Cc2ccccc2)c2ncnc(OC3CCN(CC(=O)NCC4CC4)CC3)c12` it is 11.9%; for `COc1cc2nc(C)nc(Nc3ccc(Cc4ccccc4)cc3)c2cc1OC` it is 6.35%.
The figure for `Cc1cccc(Nc2nc(N)c3ccccc3n2)c1` is 2.82%.
`O=C(c1csc(-c2cccnc2)n1)N1CCc2cc3nccc(N4CCN5CCC[C@H]5C4)c3cc21` displayed an IFI of 1.49%.
`CNS(=O)(=O)c1ccc(NC(=O)c2cc(-c3cccnc3)nc3ccc(Br)cc23)cc1` showed an IFI of 2.86%.
`C=C[C@]1(C)C[C@@H](OC(=O)CNC[C@@H](O)CN2C[C@H](c3ccnc4ccc(OC)nc34)OC2=O)[C@@]2(C)[C@@H]3C(=O)CC[C@@]3(CC[C@@H]2C)[C@@H](C)[C@@H]1O` registered an IFI of 1.56%.
Molecule `CCNc1cc(C)nc(Nc2ccc(NC(=O)c3ccccc3Cl)cc2)n1` had an IFI of 11.3%.
The figure for `N=C(N)NC(=O)Nc1cc(Cl)c(Cl)c(C(F)(F)F)c1` is 5.22%.
In turn, `Cc1noc(C)c1C(=O)N1CCCC(c2[nH]c3c(C)cccc3c2-c2ccncc2)C1` (configuration not stated) registered an IFI of 2.27%.
Molecule `COc1ccc(CNCc2ccc(-c3cccc(-c4nc5ccccc5[nH]4)c3)cc2)cc1` came in with an IFI of 9.17%.
In the case of `Oc1ccc(CCCNc2nc(NCc3cccc4ccccc34)nc(NC3CCNCC3)n2)cc1` it was 10.8%.
For `O=C(Nc1ccc(Cn2ncc(N3CCCNCC3)c(Cl)c2=O)cc1)Nc1cccc(C(F)(F)F)c1`, the IFI is 7.35%.
`Nc1nc(NCC2CCC(CNS(=O)(=O)c3cccc4ccccc34)CC2)nc2ccccc12` (configuration not stated) yielded an IFI of 6.67%.
In the case of `Nc1nc(N)c(-c2ccccc2)c(=O)[nH]1` it was 2.29%; in that of `NC(=O)c1c(Cl)nc2ccccc2c1Cl`, 1.45%.
Take `COc1ccc(/N=C(\N)Nc2ccccc2)nc1Cc1ccccc1`: the IFI worked out at 30.2%.
The figure for `Cc1nc(C)c(-c2ccc(Oc3ccc(Cl)cc3)cc2)c(O)c1I` is 0.76%; for `Cc1cc(F)ccc1[C@H]1C[C@H](N2CCOCC2)CCN1C(=O)N(C)[C@@H](C)c1cc(C(F)(F)F)cc(C(F)(F)F)c1` it is 5.66%; for `COc1ccc(CNC(=O)NC2CCN(c3ccnc(Nc4ccc(OC)cc4)n3)C2)cc1` (configuration not stated) it is 4.62%.
